Measurements published in patent publication US20250236654A1, “C-TYPE NATRIURETIC PEPTIDE ENGRAFTED ANTIBODIES” (Bayer Aktiengesellschaft, priority 2018, published 2025).

T1: human NPRA (hNPRA) (Homo sapiens, UniProt P16066)
T1 construct: expressed in transfected cells
T1 sequence (P16066 33-1061): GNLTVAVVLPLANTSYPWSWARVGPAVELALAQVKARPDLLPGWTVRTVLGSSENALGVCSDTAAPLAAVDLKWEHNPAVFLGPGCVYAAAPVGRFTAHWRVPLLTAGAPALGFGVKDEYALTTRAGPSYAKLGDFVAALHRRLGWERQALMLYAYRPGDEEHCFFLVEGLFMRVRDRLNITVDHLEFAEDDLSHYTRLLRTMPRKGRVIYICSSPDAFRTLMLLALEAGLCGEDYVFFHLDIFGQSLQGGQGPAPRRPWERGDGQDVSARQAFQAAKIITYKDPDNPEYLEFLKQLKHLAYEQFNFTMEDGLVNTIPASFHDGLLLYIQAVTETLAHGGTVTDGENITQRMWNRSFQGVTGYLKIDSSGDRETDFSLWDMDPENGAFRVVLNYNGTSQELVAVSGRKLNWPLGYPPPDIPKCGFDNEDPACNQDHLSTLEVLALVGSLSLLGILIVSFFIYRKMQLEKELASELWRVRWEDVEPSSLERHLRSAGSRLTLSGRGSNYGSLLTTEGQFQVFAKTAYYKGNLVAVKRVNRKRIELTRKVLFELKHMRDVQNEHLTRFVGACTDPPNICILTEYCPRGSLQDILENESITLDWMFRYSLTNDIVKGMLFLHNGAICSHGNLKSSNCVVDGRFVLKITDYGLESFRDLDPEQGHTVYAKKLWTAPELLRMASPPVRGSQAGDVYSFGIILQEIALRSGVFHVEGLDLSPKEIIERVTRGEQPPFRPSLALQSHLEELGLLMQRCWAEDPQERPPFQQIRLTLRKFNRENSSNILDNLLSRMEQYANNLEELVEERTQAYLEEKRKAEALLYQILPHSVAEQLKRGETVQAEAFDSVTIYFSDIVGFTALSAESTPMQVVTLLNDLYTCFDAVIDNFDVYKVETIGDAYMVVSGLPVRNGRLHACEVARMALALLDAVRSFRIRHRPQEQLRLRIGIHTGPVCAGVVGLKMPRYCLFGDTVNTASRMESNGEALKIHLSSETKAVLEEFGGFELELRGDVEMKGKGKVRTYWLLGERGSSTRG

B1: TPP-13061: ANP engrafted antibody construct, CDRH2 (antibody, listed as Homo sapiens)
heavy: EVQLLESGGGLVQPGGSLRLSCAASGFTFSSYAMSWVRQAPGKGLEWVSAISVVVTSHQAPGEGGSGGSLRRSSCFGGRMDRIGAQSGLGCNSFRYGGSTPLKSLASTYYADSVKGRFTISRDNSKNTLYLQMNSLRAEDTAVYYCAKLTGAEYFQHWGQGTLVTVSS[letters of human IgG1 constant region left out]
light: QSVLTQPPSVSGAPGQRVTISCTGSSSNIGAGYDVHWYQQLPGTAPKLLIYGNSNRPSGVPDRFSGSKSGTSASLAITGLQAEDEADYYCQSYDSSLSGVVFGGGTKLTVLGQPKAAPSVTLFPPSSEELQANKATLVCLISDFYPGAVTVAWKADSSPVKAGVETTTPSKQSNNKYAASSYLSLTPEQWKSHRSYSCQVTHEGSTVEKTVAPTECS
modifications: NP engrafted HC
B2: TPP-13054: ANP engrafted antibody construct, CDRH1 (antibody, listed as Homo sapiens)
heavy: EVQLLESGGGLVQPGGSLRLSCAASGFTFGSGSGSGGSGGSLRRSSCFGGRMDRIGAQSGLGCNSFRYGGSGGSGSGSGMSWVRQAPGKGLEWVSAISGSGGSTYYADSVKGRFTISRDNSKNTLYLQMNSLRAEDTAVYYCAKLTGAEYFQHWGQGTLVTVSS[letters of human IgG1 constant region left out]
light: B1 light
modifications: NP engrafted HC
B3: TPP-10282: ANP engrafted antibody construct, CDRH2 (antibody, listed as Homo sapiens)
heavy: EVQLLESGGGLVQPGGSLRLSCAASGFTFSSYAMSWVRQAPGKGLEWVSAISGSGSGSGSGSGSPDGGSGGSLRRSSCFGGRMDRIGAQSGLGCNSFRYGSYGSGSGSGSGSGSTYYADSVKGRFTISRDNSKNTLYLQMNSLRAEDTAVYYCAKLTGAEYFQHWGQGTLVTVSS[letters of human IgG1 constant region left out]
light: B1 light
modifications: NP engrafted HC
B4: TPP-10294: ANP engrafted antibody construct, CDRH1 (antibody, listed as Homo sapiens)
heavy: EVQLLESGGGLVQPGGSLRLSCAASGFTFGSGSGSGSGSGSPDGGSGGSLRRSSCFGGRMDRIGAQSGLGCNSFRYGSYGSGSGSGSGSGMSWVRQAPGKGLEWVSAISGSGGSTYYADSVKGRFTISRDNSKNTLYLQMNSLRAEDTAVYYCAKLTGAEYFQHWGQGTLVTVSS[letters of human IgG1 constant region left out]
light: B1 light
modifications: NP engrafted HC
B5: TPP-10765: ANP engrafted antibody construct, CDRH2 (antibody, listed as Homo sapiens)
heavy: EVQLLESGGGLVQPGGSLRLSCAASGFTFSSYAMSWVRQAPGKGLEWVSAISGPNPNKNPNPNPGSGGSLRRSSCFGGRMDRIGAQSGLGCNSFRYGSNPNENPNPNPGSTYYADSVKGRFTISRDNSKNTLYLQMNSLRAEDTAVYYCAKLTGAEYFQHWGQGTLVTVSS[letters of human IgG1 constant region left out]
light: B1 light
modifications: NP engrafted HC
B6: TPP-10290: ANP engrafted antibody construct, CDRH3 (antibody, listed as Homo sapiens)
heavy: [letters of about 100 residues left out]VHPNPNPNPNSPDGGSGGSLRRSSCFGGRMDRIGAQSGLGCNSFRYGSYNPNPNPNPHVDVWGQGTTVTVSS[letters of human IgG1 constant region left out]
light: B1 light
modifications: NP engrafted HC
B7: TPP-10845: ANP engrafted antibody construct, CDRH2 (antibody, listed as Homo sapiens)
heavy: EVQLLESGGGLVQPGGSLRLSCAASGFTFSSYAMSWVRQAPGKGLEWVSAISGSTYISNVNHKPDGGSGGSLRRSSCFGGRMDRIGAQSGLGCNSFRYGSNTKVDKKVEGGSTYYADSVKGRFTISRDNSKNTLYLQMNSLRAEDTAVYYCAKLTGAEYFQHWGQGTLVTVSS[letters of human IgG1 constant region left out]
light: B1 light
modifications: NP engrafted HC
B8: TPP-10274: ANP engrafted antibody construct, CDRH3 (antibody, listed as Homo sapiens)
heavy: EVQLLESGGGLVQPGGSLRLSCAASGFTFSSYAMSWVRQAPGKGLEWVSAISGSGGSTYYADSVKGRFTISRDNSKNTLYLQMNSLRAEDTAVYYCTSVHQETKKYQSSPDGGSGGSLRRSSCFGGRMDRIGAQSGLGCNSFRYGSYSYTYNYEWHVDVWGQGTLVTVSS[letters of human IgG1 constant region left out]
light: B1 light
modifications: NP engrafted HC

Target: T1, human NPRA (hNPRA)
Assay: cGMP quantification assay (HTRF) on stable hNPRA-CHO k1 cells (rcs, ics, pcs samples)
Assay type: cell-based
Conditions: ANP engrafted antibody constructs; summarized qualitative assessment from average rel. log EC50 vs reference TPP-5661 on hNPRA cells
Protocol: All activities shown in Tables 7 and 8 were measured on cells with heterologous over expression of human NPRA (hNPRA) by use of a cGMP quantification assay conducted according to manufacturer's instructions (cisbio; 62GM2PEH). In brief, the assay quantifies cGMP in buffered solution or cell-culture supernatants based on the competition between cGMP produced by the cell as result of the NPRA stimulation through the (natriuretic peptide) sample and d2 labelled cGMP for binding to a Cryptate labelled antibody. Sample cGMP and d2 labeled cGMP compete for binding to a limited number of sites on Cryptate labeled anti-cGMP antibodies, and consequently, HTRF® specific fluorescent signal (i.e. energy transfer) is inversely proportional to the concentration of cGMP in the sample.
Dose-response curve data were analyzed with GraphPad Prism (version 7.00 for Windows, GraphPad Software, La Jolla California USA) and EC50 were fitted according to Y=Bottom+(Top-Bottom)/(1+10∧((Log EC50-X)*HillSlope)) applying constraints for bottom, top and slope (shared value for all data sets of the respective experiment).
The raw compound sample activity on stable hNPRA-CHO k1 cells was first assessed by comparison to the negative control TPP-5657 and to a positive sample, in particular TPP-5661. Controls and res were tested in quadruplets in two concentrations with a relative dilution factor of 5 aiming for a fluorescent signal (s) in the dynamic range of the assay. […] Values listed in Table 7, columns “activity res” and “stdev activity res”, represent the average of the results for the two concentrations and the respective standard deviation. Res signals less than half of the signal of the reference compound TPP-5661 (36%) were assessed as not active (n.a.).
The activity of several raw compound samples on stable hNPRA-CHO k1 cells was reassessed by comparison to reference sample TPP-5661 in 2.5-fold dilution series (8 concentrations) starting with a 5-fold dilution. The “log EC50” fit value as activity measure of the res was set in relation to the corresponding value of the reference res TPP-5661 by calculating the delta “log EC50” _compound −“log EC50” _TPP-5661; resulting values are listed in Table 7, column “rel. activity res”. […] All samples were applied in quadruplets.
The activity of isolated compound samples on stable hNPRA-CHO k1 cells was assessed by EC50 determination and comparison to reference sample TPP-5661. Samples were tested in 2.5-fold dilution series from 80 nM to 0.13 nM. The log EC50 fit value as activity measure of the ics was set in relation to the corresponding value of the reference ics TPP-5661 (−8.8) by calculating the delta log EC50_compound−log EC50_TPP-5661; resulting values are listed in Table 7, column “rel. log EC50 ics”. All samples were applied in quadruplets.
The activity of purified compound samples on stable hNPRA-CHO k1 cells was assessed in multiple experiments by EC50 determination and comparison to reference sample TPP-5661. Samples were tested in dilution series at least in quadruplets. […] The log EC50 fit value as activity measure of the pcs was set in relation to the corresponding value of the reference TPP-5661 in the respective experiment (in average −9.2, standard deviation 0.5) by calculating the delta log EC50_compound−log EC50_TPP-5661.

Row | Molecule | activity (qualit. activity, excerpt of Table 7)
1 | B1 | ++ (relative log EC50<0.7 were assessed as very active)
2 | B2 | ++ (relative log EC50<0.7 were assessed as very active)
3 | B3 | ++ (relative log EC50<0.7 were assessed as very active)
4 | B4 | ++ (relative log EC50<0.7 were assessed as very active)
5 | B5 | ++ (relative log EC50<0.7 were assessed as very active)
6 | B6 | ++ (relative log EC50<0.7 were assessed as very active)
7 | B7 | ++ (relative log EC50<0.7 were assessed as very active)

Same assay, conditions: raw compound samples (rcs) on stable hNPRA-CHO k1 cells; reference TPP-5661 (#117) gives 36%; n.a. = not active

Row | activity rcs | Molecule
8 | 71% | B8
9 | 30% | B3
10 | 41% | B4
11 | 72% | B5
12 | 84% | B6
13 | 67% | B7

Same assay, conditions: summarized qualitative assessment from average rel. log EC50 (hNPRA-CHO k1 and hNPRA-HEK293 data); n.e = not active, very low expression

Row | Molecule | qualit. activity
14 | B1 | ++ (relative log EC50<0.7 were assessed as very active)
15 | B2 | ++ (relative log EC50<0.7 were assessed as very active)
16 | B3 | ++ (relative log EC50<0.7 were assessed as very active)
17 | B4 | ++ (relative log EC50<0.7 were assessed as very active)
18 | B5 | ++ (relative log EC50<0.7 were assessed as very active)
19 | B7 | ++ (relative log EC50<0.7 were assessed as very active)

Same assay, conditions: summarized qualitative assessment of activity relative to reference TPP-5661

Row | Molecule | qualit. activity
20 | B8 | ++ (relative log EC50<0.7 were assessed as very active)
21 | B6 | ++ (relative log EC50<0.7 were assessed as very active)
